# PubChem BioAssay AID1240 (Sanford-Burnham Center for Chemical Genomics, 2008)
# Screen size: about 50,000 compounds; about 800 (1.6%) showed an effect of 50% or more. The list shows a part of the results.
# Biological target: Bcl-2-like protein 10 (Homo sapiens) (UniProt Q9HD36)
# Assay: TR3 peptide-Bcl-B binding displacers, biochemical primary FP assay, phenotype converters (AID 1240);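 also: 0% = Bcl-B with tracer peptide and DMSO and 100% = tracer peptide lacking Bcl-B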
# Conditions: GST-Bcl-B / FITC-TR3 peptide fluorescence polarization; stronger effect = higher value; compound at 3.75 mg/L
# UniProt Q9HD36, sequence (Q9HD36 whole entry, looked up): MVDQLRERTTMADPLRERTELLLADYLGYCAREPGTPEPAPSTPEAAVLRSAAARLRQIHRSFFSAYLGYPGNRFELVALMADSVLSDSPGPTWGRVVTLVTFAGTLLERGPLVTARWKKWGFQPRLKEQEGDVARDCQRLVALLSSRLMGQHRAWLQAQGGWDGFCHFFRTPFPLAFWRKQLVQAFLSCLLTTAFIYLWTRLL
row,Compound,displacement [%]
1,O=C(NCc1ccccc1)c1ccc(C2SCC(=O)N2Cc2ccccc2)cc1 (centres undefined),0
2,CC(NC(=O)CSc1nc2ccc(N)cc2s1)c1ccccc1 (centres undefined),-2.3
3,Cc1cc(C)cc(NC(=O)c2ccc(F)cc2)c1,2
4,Cc1cc2c(c(=O)o1)C(c1ccc([N+](=O)[O-])cc1)C(C#N)=C(N)O2 (centres undefined),14.4
5,COc1ccc(C(=O)NC2CCSC2=O)cc1[N+](=O)[O-] (centres undefined),1.1
6,Cc1cc[n+](CC(=O)OC23CC4CC(CC(C4)C2)C3)cc1,7.9
7,CCc1ccc(-c2cc(C(=O)O)c3cc(Br)ccc3n2)s1,-8.7
8,Cc1ccc(C(=O)n2cnc3ccccc32)o1,-1.6
9,O=C(c1cc(F)c(F)cc1Cl)n1nnc2ccccc21,-2.8
10,COc1ccc(NC(=O)c2c(C)c(-c3ccc(Cl)cc3)nc3ccccc23)c(OC)c1,-6.7
11,O=C(Nc1ncc(Cc2ccccc2)s1)c1ccc([N+](=O)[O-])cc1,2.7
12,COc1ccc(CNC(=O)c2cc(Cl)ccc2Cl)cc1,4.1
13,COc1ccccc1NC(=O)Nc1ncccc1C,-0.5
14,NNC(=O)c1ccc(NS(=O)(=O)c2ccccc2)cc1,-5.5
15,O=[N+]([O-])c1ccc(C=Nc2ccc(Cl)c([N+](=O)[O-])c2)s1,7.1
16,CCCCCCCCCCCCNC1CC(=O)NC1=O (centres undefined),-8.9
17,CN(C)NC(=O)c1cccc2c1-c1ccc(I)cc1C2,-1.5
18,CN(C)c1cccc(C(=O)Nc2ccc(Cl)cc2Cl)c1,-2.1
19,N#C/C(=C\c1ccc(-c2cccc(C(F)(F)F)c2)o1)c1ccc(Cl)cc1,-15.3
20,COc1ccc(CNC(=O)Cc2ccccc2)cc1OC,0.5
21,Cc1ccc2oc(-c3cccc(NC(=O)/C=C/c4cccc([N+](=O)[O-])c4)c3C)nc2c1,-24.7
22,COc1ccc(NC(=O)C(=O)NCc2ccc(C)cc2)c(OC)c1,10.4

row,Compound,displacement [%]
1,COc1cc(C(=O)Nc2c(C)cccc2C(C)C)c(Br)c(OC)c1OC,10.5
2,O=C(Nc1ccc(C(=O)Nc2ccc(Cl)cc2)cc1)c1ccccc1,14.6
3,Cc1ccc(C(=O)NCc2ccccc2)o1,1.9
4,COc1cccc(/C=C(/C#N)C(=O)Nc2ccc(F)cc2)c1O,30.1
5,COc1ccc(NC(=O)COc2c(C)cc(C)cc2C)cc1,12.3
6,Cc1cc(/C=C2\C(=O)NC(=S)N(c3ccccc3)C2=O)c(C)n1-c1ccc([N+](=O)[O-])cc1,16.8
7,COC(=O)CCCN1C(=O)/C(=C/c2ccc(OC)cc2)SC1=S,1.8
8,O=C(c1ccccc1Cl)N1CCN(C/C=C/c2ccccc2)CC1,2
9,COc1ccc(CCNC(=O)c2cc(-c3cccc(OC)c3)nc3ccccc23)cc1,-8.4
10,CCOc1ccc(N2C(=O)C3C(C2=O)C2(C)c4ccccc4C3(C)c3ccccc32)cc1 (centres undefined),-12
11,Cc1cccc(-c2nc3cc(NC(=O)c4ccc(Br)o4)ccc3o2)c1,-0.4
12,CCC(C(=O)Nc1cccc(Br)c1)c1ccccc1 (centres undefined),8.7
13,CCCCOc1cccc(C(=O)N2CCN(c3ccc([N+](=O)[O-])cc3)CC2)c1,12.9
14,COc1ccc(NC(=O)CN(Cc2ccccc2)S(=O)(=O)c2ccccc2)cc1,6
15,NS(=O)(=O)c1ccc(NC(=O)CCC(=O)O)cc1,-3.2
16,O=C(NCCCNc1ccc([N+](=O)[O-])cc1)c1cccc(Br)c1,-3.6
17,O=C(NC(NC(=S)Nc1cccc(Br)c1)C(Cl)(Cl)Cl)c1ccccc1F (centres undefined),12.6
18,COc1ccc(NC(=O)CC(C)=O)cc1Cl,2.1
19,Cc1ccc(/C(O)=C(\C#N)c2nc3ccccc3[nH]2)cc1,-11.6
20,CCCCNCCCCOc1c(C)cccc1C,8.6
21,CCOC(=O)c1ccc(N2C(=O)CC(=O)NC2=O)cc1,-0.9
22,O=S(=O)(NCc1ccco1)c1ccc(Cl)cc1Cl,-8.7

row,Compound,displacement [%]
1,O=S(=O)(c1ccc(I)cc1)N1CCCC1,14.1
2,COc1ccc(NCCC(=O)c2ccc(Cl)c(Cl)c2)cc1,-2.3
3,Cc1cccc(C(=O)NC(NC(=O)c2cccc(C)c2)c2ccc(Br)cc2)c1,-4.1
4,O=C(CNc1ccccc1Cl)c1ccc([N+](=O)[O-])cc1,-9.2
5,O=C(O)CCCN1C(=O)C(=O)/C(=C(/O)c2ccccc2)C1c1ccccc1Cl (centres undefined),-8
6,COc1cc(/C=C2\C(=O)NC(=O)N(c3ccc(C)cc3)C2=O)c(Br)cc1OCC(=O)O,16.2
7,O=C1CCCc2oc3ccc(NS(=O)(=O)c4cc(Cl)ccc4Cl)cc3c21,-1.2
8,CCN1C(C)=C(C(=O)OC)C(c2ccc([N+](=O)[O-])cc2)C(C(=O)OC)=C1C,7.4
9,COc1ccc(N2C(=O)CC(C3CCCO3)C2=O)cc1 (centres undefined),-6.7
10,O=C(O)c1ccc(NC(=O)c2cc(NC(=O)c3ccc(C(=O)O)cc3)cc(C(=O)Nc3ccc([N+](=O)[O-])cc3)c2)cc1,10
11,Cc1cc(C)cc(NC(=O)C(=O)NCC(C)O)c1 (centres undefined),-0.7
12,COCCNC(=O)CN(c1ccc(OC)c(Cl)c1)S(C)(=O)=O,-14.1
13,O=C(NCC1(c2ccccc2)CCOCC1)c1ccc(Cl)cc1Cl,-8.5
14,CCN(CC)C(=O)c1sc(NC(=O)C2c3ccccc3Oc3ccccc32)c(C(N)=O)c1C,-3.7
15,CC(C)CCNC(=O)c1cc(-c2ccccc2)nc2ccccc12,-8.9
16,Fc1c(F)c(C(F)(F)F)c(F)c(F)c1N1CCN(c2ccc3nnc(C(F)(F)F)n3n2)CC1,-11.2
17,Nc1nonc1N=Cc1ccccc1O,-11
18,O=C(CN1C(=O)c2ccc([N+](=O)[O-])cc2C1=O)Nc1ccc(F)cc1,1.6
19,COc1cccc(/C=N/NC(=O)Cn2c(-c3nonc3N)nc3ccccc32)c1OCc1ccc(Cl)cc1Cl,8.6
20,COc1ccc(S(=O)(=O)Oc2ccccc2)cc1,4.7
21,Cc1ccc(-c2nnc(-c3ccc(Br)o3)o2)cc1,-2.1
22,Cc1ccc(C(=O)O)cc1N1C(=O)c2ccc(Oc3cccc([N+](=O)[O-])c3)cc2C1=O,-5.7

row,Compound,displacement [%]
1,O=C(O)COc1ccc(/C=C2\C(=O)NN(c3ccccc3)C2=O)cc1,22.6
2,N#Cc1c(C(F)(F)F)cc(-c2ccccc2)nc1SCC(=O)NCC(=O)O,13.6
3,CCc1ccc(N2CC(C(=O)Nc3ccc([N+](=O)[O-])cc3)CC2=O)cc1 (centres undefined),12.4
4,Cc1ccc(-n2nc(C)c(-c3cccc([N+](=O)[O-])c3)c2C)cc1Cl,10.6
5,C/C=C/C=C/C(=O)N1C(=O)C(=O)c2cc(Br)ccc21,4.9
6,COc1ccc(C2C(C(=O)/C=C/c3ccccc3)=C(O)C(=O)N2CCCCCC(=O)O)cc1OC (centres undefined),-11.7
7,COc1ccc(NC(=O)c2cc(-c3ccc(OC)cc3)nc3ccccc23)cc1,4.8
8,COc1cc(/C=C2\NC(=S)NC2=O)ccc1Oc1ccc([N+](=O)[O-])cn1,8.2
9,COC(=O)c1ccc(/C=C2\SC(=S)N(CCCC(=O)Nc3nccs3)C2=O)cc1,26.3
10,Cc1cccn2c(=O)c(/C=C3\SC(=S)N(Cc4ccccc4)C3=O)c(NCCCn3ccnc3)nc12,9.7
11,COc1ccc(C(=O)Nc2ccc(S(=O)(=O)Nc3ncccn3)cc2)cc1OC,-11.5
12,Nc1ncc(-c2ccc([N+](=O)[O-])cc2)cn1,-4.1
13,Cc1c(N(C(=O)c2ccc(Cl)cc2)C(C)C)c(=O)n(-c2ccccc2)n1C,-1.6
14,O=c1cc(N2CCCCC2)c2ccccc2n1-c1ccccc1,-10
15,Cc1ccc(OCC(=O)NN)c(Br)c1,-6.5
16,COc1ccc(C(O)(C(=O)NCCCCOc2ccccc2)c2ccc(OC)cc2)cc1,-3.3
17,COc1ccccc1N1C(=O)c2ccc(C(=O)Nc3ccccc3O)cc2C1=O,20.9
18,N=c1oc2ccc([N+](=O)[O-])cc2cc1-c1nc2ccccc2[nH]1,-3.3
19,Nc1nnnn1/N=C/c1ccc(N2CCOCC2)cc1,0
20,CCCOC(=O)C1=C(C)NC2=C(C(=O)CC(c3ccc(OC)cc3)C2)C1c1cc(Br)c(O)c(OC)c1 (centres undefined),-6.2
21,CCOc1ccc(/C=C(\NC(=O)c2cccc(Br)c2)C(=O)N2CCCCCC2)cc1,-8
22,C/C(=N\NC(=O)c1ccco1)c1ccc(Br)cc1,3.8

row,Compound,displacement [%]
1,O=C(Nc1ccc(Cl)cc1)Nc1nnc(Cc2ccc(Cl)cc2)s1,11.2
2,COC(=O)c1sccc1NC(=O)c1ccc(C)c([N+](=O)[O-])c1,3.3
3,CCCCNCCCCCCOc1ccccc1OC,4.5
4,COc1cc(/C=C2/SC(=S)NC2=O)ccc1OS(=O)(=O)c1ccccc1,-98.1
5,CCCC(=O)NC(c1ccccc1Cl)c1c(O)ccc2ccccc12 (centres undefined),3.9
6,COc1ccc(C2NC(=O)NC(C)=C2C(=O)Nc2ccccc2C)cc1OC (centres undefined),5.2
7,Cc1cccc(N2C(=O)c3ccc(C(=O)O)cc3C2=O)n1,9.8
8,CN(CCO)S(=O)(=O)c1ccc(N)cc1,-5.8
9,O=C1NC(=S)NC(=O)C1=Cc1ccc(N2CCCCC2)c([N+](=O)[O-])c1,20.3
10,Cc1ccc(C23CC4CC(CC(C(=O)Nc5ccc(F)cc5F)(C4)C2)C3)cc1,-3.1
11,C#CCOc1ccc(/C=C2\C(=O)NC(=O)N(c3ccc(Cl)cc3)C2=O)cc1OCC,-5.9
12,Oc1ccc2ccccc2c1CN=Cc1cccnc1,31.9
13,O=C(O)c1cccc(NC(=O)c2cccc(Br)c2)c1,-3.5
14,COC(=O)c1cccc(NC(=O)COc2cccc(C)c2C)c1,-3.2
15,CN1CCO/C1=C(C#N)\C=C1/C(=O)N(c2c(Cl)cccc2Cl)c2ccccc21,67.6
16,Cc1cc(C(=O)N=Nc2c(O)n(Cc3ccccc3)c3ccc(Br)cc23)n[nH]1,0.1
17,CC(=O)CCc1oc2ccc([N+](=O)[O-])cc2c1-c1ccc(C)o1,3.5
18,CCOC(=O)CNC(c1ccccc1)c1cc(Br)ccc1NC(=O)CN1CCOCC1 (centres undefined),11.2
19,Cc1ccc(C(=O)CC(=O)c2ccccc2)cc1,3.3
20,Cc1cc(/C=N/NC(N)=S)c(C)n1-c1ccc(Cl)cc1,-15.7
21,CCOC(=O)c1c(C)oc2ccc(OCC(N)=O)cc12,10.3
